In PubChem BioAssay AID686978 (National Center for Advancing Translational Sciences (NCATS), 2013):
Several values for one entry are separate records, joined by “and”; a condition that tells them apart may be missing. Equal values may be shown once. Screen size: about 420,000 compounds; about 64,000 (15%) were called active. Inconclusive means that the source gave no clear call. Such entries were picked first, then a sample of the others. The call rests on the fitted dose curve; in most records, active means well fitted inhibition curve with a large enough effect; inconclusive means small, poorly fitted or top-dose-only effect; inactive means flat fitted curve, though single readings scatter. No potency is given beside an inconclusive call; the fits are too rough.

Assay: qHTS for Inhibitors of human tyrosyl-DNA phosphodiesterase 1 (TDP1): qHTS in cells in absence of CPT; further: nearly all actives have a fitted effect of over 55% in size
Details: DT40 Tdp1-/- hTDP1 cells, no CPT, ATP luminescence, 48 h; activity change, negative = growth inhibition: at 46.2 µM (top of the series) unless noted
In short: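 A cellular qHTS used chicken DT40 cells lacking endogenous Tdp1 but carrying stably transfected human TDP1. Compounds were applied without camptothecin, and cell growth kinetics were judged by ATP-dependent luminescence after ≥48 hr.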
On the % scale 0 is the no-effect control and ±100 the full control effect; potency means the concentration at half of the fitted maximal effect; tags describe the fitted curve by direction and shape.

Structure (SMILES)	Potency	activity change, negative = growth inhibition
O=C(Cn1nc(-c2cccc([N+](=O)[O-])c2)c2ccccc2c1=O)NCC1CCCO1 (configuration not stated)	inactive	–
CC(C)(C)N(Cc1ccccc1)C(=O)COC(=O)CN1C(=O)C2CC=CCC2C1=O (configuration not stated)	inconclusive [inhibitor, partial curve]	–
COc1ccc(C(CNC(=O)Cc2ccccc2Cl)N2CCCCC2)cc1 (configuration not stated)	inactive	–
COc1ccc(N2CCN(C(=O)CN3C(=O)CSc4c3c(C)nn4-c3ccccc3)CC2)cc1	inconclusive [inhibitor, partial curve]	–
Cc1ccc(NC(=O)CN(C)C(=O)c2ccccc2Cc2ccccc2)cc1	inconclusive [inhibitor, single point]	–
CC1CN(C(=O)CCC(=O)NCc2ccc(Cl)cc2)c2ccccc2S1 (configuration not stated)	inactive	–
C[C@H](O)[C@@H]1C(=O)N2CCc3c([nH]c4ccccc34)[C@@H]2C[C@@H]1N(C)S(=O)(=O)c1ccccc1	active: 23.1 µM	–
CCS(=O)(=O)N1CCC(c2nc(-c3ccc(C(F)(F)F)cc3)no2)CC1	active: 14.1 µM	–
COc1ccc(-c2noc(CCCC(=O)N3CCN(c4cc(C)ccc4C)CC3)n2)cc1	inconclusive [inhibitor, single point]	–
FC(F)(F)c1cccc(-c2nc(COc3ccc(Cl)cc3Cl)no2)c1	inactive	–
CN(C)C(=O)CN1CCN(c2nc3nonc3nc2N2CCCCC2)CC1	inconclusive [inhibitor, partial curve]	–
O=C(Nc1ccc(F)c(Cl)c1)c1cc(S(=O)(=O)N2CCc3ccccc3C2)ccc1F	inconclusive [inhibitor, single point]	–
Cn1c(Cc2cccs2)nnc1SCC(=O)Nc1ccc(C(N)=O)cc1	inactive	–
COc1ccccc1-n1c(SC(C)C(=O)NCC2CCCO2)nc2cc(Cl)ccc2c1=O (configuration not stated)	inconclusive [inhibitor, single point]	–
COc1cccc(N(C(=O)c2snc(C(N)=O)c2N)C(C(=O)NCC2CCCO2)c2ccc3ncccc3c2)c1 (configuration not stated)	inactive	–
S=c1[nH]nc(-c2ccc3ncccc3c2)n1-c1ccc2c(c1)OCCO2	inconclusive [inhibitor, single point]	–
O=C(c1cccnc1)N1CCN(CCCc2ccccc2)CC1	inactive	–
COc1ccccc1Cc1c(-c2cccc(Cl)c2)nc2ccc(Cl)cn12	active: 18.4 µM	–
Cc1ccc(NC(=S)Nc2cccc3cnccc23)cc1C	inconclusive [inhibitor, partial curve]	–
Cc1ccccc1N1CC(C(=O)Nc2ccc(Br)cc2)CC1=O (configuration not stated)	inconclusive [inhibitor, single point]	–
COCCCNc1nc2cc(OC)c(OC)cc2c2nc(-c3ccccc3)nn12	active: 3.66 µM and active: 7.31 µM	–
CNc1ccccc1C(=O)OCC(=O)N1CCc2ccccc2C1	inactive	–
CCc1cccc(NC(=O)C(NC(=O)C2CCCCC2)C(C)C)c1 (configuration not stated)	inactive	–
NCCCCCc1nnc(SCc2ccc(Cl)c(Cl)c2)o1	inactive	–

Structure (SMILES)	Potency	activity change, negative = growth inhibition
CC(=O)Oc1ccc(C)cc1-n1nc2ccccc2n1	inactive	–
COCCCN1C(=O)C(CC(=O)NCCCCc2ccccc2)CC(C(=O)N(C(C)C)C(C)C)=C1C (configuration not stated)	inconclusive [inhibitor, single point]	–
COCCN1C[C@@H](CO)O[C@@H](n2cnc3c(NCc4ccncc4)ncnc32)C1	inactive	–
COc1ccc(C/C(C)=N/NC(=O)c2cccnc2)cc1	inactive	–
Cc1cc(C)n(C(=O)c2cc([N+](=O)[O-])cc([N+](=O)[O-])c2)n1	inconclusive [inhibitor, single point]	–
Fc1cccc(NC(=S)NCc2ccc(Cl)cc2)c1	inconclusive [inhibitor, partial curve]	–
CCCCCCn1c(N(CC)CC)nc2c1c(=O)[nH]c(=O)n2C	inconclusive [inhibitor, single point]	–
COc1ccc(CNC(=O)CN2N=C(c3ccccc3)CCC2=O)c(OC)c1	inconclusive [inhibitor, single point]	–
CCN(CC)S(=O)(=O)c1ccc(N/N=C/c2cc(OC)ccc2O)nc1	active: 6.51 µM	–
CCCCOC(=O)CNc1nnc(SCC(=O)OCC)[nH]c1=O	inconclusive [inhibitor, single point]	–
COc1ccc(N(C)S(=O)(=O)c2cccc(C(=O)Nc3ccc4c(c3)OCCO4)c2)cc1	active: 14.6 µM	–
Cc1cccc(NC(=O)C2CCN(S(=O)(=O)c3c(C)noc3/C=C/c3ccco3)CC2)n1	active: 23.1 µM	–
CC(C)c1ccc(C2N3CC4([N+](=O)[O-])CN2CC([N+](=O)[O-])(C3)C4(C)C)cc1 (configuration not stated)	inconclusive [inhibitor, full curve]	–
CC(=O)Nc1ccc(NC(=O)C2CCN(c3c(Cc4ccccc4)c(C)nc4ncnn34)CC2)cc1	inactive	–
Cc1nnc(N2CCCC(C(=O)NCc3ccccc3F)C2)c2nn(-c3ccc(Cl)cc3)c(C)c12 (configuration not stated)	inconclusive [inhibitor, single point]	–
CC(=O)N1CCN(S(=O)(=O)c2cccc(C(=O)Nc3nc4c(s3)CCCC4)c2)CC1	inconclusive [inhibitor, partial curve, poor fit]	–
c1cc(CNC2C3CC4CC(C3)CC2C4)ccn1 (configuration not stated)	inconclusive [inhibitor, partial curve, poor fit]	–
O=[N+]([O-])c1ccc(Oc2ccc(S(=O)(=O)N3CCOCC3)cn2)cc1	inactive	–
COc1cc(/C=C2\SC(=S)N(N3CCOCC3)C2=O)cc(OC)c1OC	inconclusive [inhibitor, partial curve]	–
Cc1cc(N2CCN(C)CC2)nc(-c2ccccc2O)n1	inactive	–
Cn1c(N=NC(=O)c2ccccc2)c(O)c2ccccc21	active: 23.1 µM	–
CN(C)c1ccsc1C(=O)NNS(=O)(=O)c1ccc(Cl)cc1	inactive	–
O=C(Nc1cccnc1)c1ccc(Br)c(S(=O)(=O)N2CCCC2)c1	inconclusive [inhibitor, partial curve, poor fit]	–
CCN(CC)S(=O)(=O)c1ccc2c(c1)nc(CCC(=O)Nc1cccc(C(F)(F)F)c1)n2CC	inconclusive [inhibitor, single point]	–

Structure (SMILES)	Potency	activity change, negative = growth inhibition
COc1cccc(-c2nn(-c3ccc(C)cc3)cc2C(=O)N(C)CC(=O)Nc2cccc(F)c2)c1	inconclusive [inhibitor, single point]	–
Cc1[nH]c2ccccc2c1C(C[N+](=O)[O-])c1ccco1 (configuration not stated)	inconclusive [inhibitor, single point]	–
O=C(CC1CC2CCC1C2)N1CCN(S(=O)(=O)c2ccccc2F)CC1 (configuration not stated)	inconclusive [inhibitor, partial curve, poor fit]	–
COc1cc(Cl)c(C)cc1NC(=O)c1ccc2c(SCC(=O)O)c3c(nc2c1)CCCC3	inconclusive [inhibitor, single point]	inconclusive: -31.4% [inhibitor]
Cc1cc(Nc2ccc3c(c2)OCCO3)n2nc(C)nc2n1	inactive	–
N#Cc1c(-c2ccccc2)c(-c2ccccc2)n[nH]c1=O	inactive	–
Cc1cccc(NC(=O)c2cc(-c3ccc(C)s3)nc3ccccc23)n1	active: 13 µM	–
COc1ccc(CN=C(C)c2c(C(F)(F)F)[nH]n(-c3nc4ccccc4s3)c2=O)cc1	inconclusive [inhibitor, single point]	–
CCCC(=O)Nc1ccc(Cl)c(NC(=O)c2cccc(OC)c2)c1	inconclusive [inhibitor, single point]	–
COc1ccc(C(=O)NCc2nnc(SCC(=O)Nc3ccccc3)n2-c2ccccc2)cc1	inactive	–
O=C(Oc1c(-c2ccco2)oc2ccccc2c1=O)c1cccnc1	inconclusive [inhibitor, single point]	–
O=C(Cn1c(=O)n(CC2CCCO2)c(=O)c2ccccc21)N1CCN(c2ccccc2)CC1 (configuration not stated)	inconclusive [inhibitor, single point]	–
COc1ccc(NS(=O)(=O)c2cc(NC(=O)Cc3c(F)cccc3Cl)ccc2OC)cc1	inconclusive [inhibitor, single point]	–
CCCN1CCC(NC(=S)Nc2cccc(Cl)c2Cl)CC1	inconclusive [inhibitor, single point]	–
O=C(/C=C/c1ccc(OCCCF)cc1)NCc1ccc(Cl)c(Cl)c1	–	inconclusive: -31.3% [inhibitor]
CC(=O)N1CCC[C@H]1C(=O)NCC1Cc2cc(-c3cccc(OC(F)(F)F)c3)ccc2O1 (some centres not stated)	active: 16.4 µM	–
Cc1ccc(-c2nc3cccnc3s2)cc1NS(=O)(=O)c1ccc2c(c1)OCCO2	inconclusive [inhibitor, single point]	–
c1ccc(Nc2nnc(-c3cccnc3)s2)cc1	inconclusive [inhibitor, single point]	–
COc1cccc(CNC(=O)c2c(OC)cc(=O)n3c2CCN(C(=O)c2cc(C)ccc2C)CC3)c1	inactive	–
COc1ccc(C(=O)CN2C(=O)c3ccccc3C2=O)c(OC)c1	inactive	–
O=C(CSCc1cccc(F)c1)N1CCN(c2ccccc2)CC1	–	inconclusive: -31.4% [inhibitor]
Fc1ccc(-c2ccc3c(c2)C2CC3CCN2Cc2ccc3c(c2)OCO3)cc1 (configuration not stated)	active: 16.4 µM	–
COC(=O)c1sc(NC(=O)c2oc3ccccc3c2C)nc1C	active: 3.66 µM	–
